Laboratory results published in the supplement of paper PMC4166925.
± gives the standard deviation of the averaged measurements. In all, about 33,000 sequences were measured (“E-score (dimensionless, -0.5 to 0.5)”: median about -0.046, highest 2% from about 0.36 on). The list shows a part of the results.

tested on: T1, SpTbr T-box DNA-binding domain (GST fusion); assay: PBM E-score of 8-mer (E-score (dimensionless, -0.5 to 0.5)); Tbr is Tbrain of the sea star Patiria miniata (Pm) or the sea urchin Strongylocentrotus purpuratus (Sp); higher = stronger binding preference; most listed sequences are background and not binding sites; conditions: the construct has about 5 more residues each side
T1 sequence: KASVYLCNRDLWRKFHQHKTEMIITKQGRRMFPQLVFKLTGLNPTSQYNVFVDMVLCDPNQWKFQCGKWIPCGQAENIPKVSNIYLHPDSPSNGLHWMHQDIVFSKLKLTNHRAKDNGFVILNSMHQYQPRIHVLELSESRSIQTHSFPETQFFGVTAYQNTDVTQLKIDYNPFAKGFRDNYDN
Method in brief: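 GST-fused Tbr T-box DNA-binding domains (the whole T-box plus about five flanking residues) were expressed in BL21 E. coli at 20 °C and purified by glutathione affinity chromatography. Universal Agilent oligonucleotide arrays were made double-stranded by primer extension, incubated with 200 nM protein in PBS (pH 7.5), then scanned and quantified. Every ungapped 8-mer was scored from probe intensities. The Universal PBM Analysis Suite gave each word an enrichment E-score, averaged over duplicate arrays.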

Sequence	PBM E-score of 8-mer
AAGGGCTC	-0.154 ± 0.066
AATTTGGA	-0.1059 ± 0.00062
CAAAGTAA	-0.108 ± 0.025
ACTTCAAA	-0.0914 ± 0.02
ACCCTTCG	-0.0732 ± 0.09
ACCAATGC	0.0269 ± 0.028
CCATCCGG	-0.192 ± 0.0032
CGATATAA	-0.0143 ± 0.07
CCGGAAAA	-0.101 ± 0.066
AGAATTGG	-0.23 ± 0.045
GTAGGCAC	0.112 ± 0.058
CTACACAG	-0.144 ± 0.03
AACGATTC	0.0869 ± 0.055
ACTTTCGG	0.045 ± 0.018
CAAGTCGG	-0.105 ± 0.075
CCGGATAG	-0.162 ± 0.0085
ACCAAAAG	0.0114 ± 0.014
AATGCAGC	-0.173 ± 0.0037
GGGGCATA	-0.336 ± 0.034
ACCGAGTG	0.0189 ± 0.044
TCATAAGA	-0.22 ± 0.029
TACATCCA	-0.115 ± 0.036

Sequence	PBM E-score of 8-mer
CGCGGTAC	-0.0515 ± 0.057
AGGCTGCG	0.0335 ± 0.049
CCTGGGCC	-0.362 ± 0.011
TAATTTCA	-0.0596 ± 0.11
CCAGTAAA	-0.142 ± 0.026
AGTATTCA	-0.114 ± 0.037
TCATCCCA	0.0944 ± 0.017
GACTCTAA	-0.0677 ± 0.044
CGACCGGA	0.0332 ± 0.012
GTGGAAGA	-0.211 ± 0.058
TATTGAGA	-0.0845 ± 0.055
CCTTTAAG	-0.174 ± 0.049
ACCGGCGG	-0.0895 ± 0.043
CGGCCGAC	0.00933 ± 0.033
ACAGAGAA	0.0136 ± 0.033
CTAGGTGC	0.3603 ± 0.003
ACTGGCGG	-0.00448 ± 0.055
GTAAGTCA	-0.148 ± 0.015
CGAAAAAG	-0.0669 ± 0.07
ACGCCCGA	0.214 ± 0.026
ACTTCCCA	0.202 ± 0.005
GCATCAAC	0.0313 ± 0.0088

Sequence	PBM E-score of 8-mer
AAAATTTA	-0.179 ± 0.11
CCTGTAAG	0.0754 ± 0.081
ACTAGTCA	0.189 ± 0.03
CTCGCATA	0.0738 ± 0.076
AAGGGTTG	-0.117 ± 0.0043
AAATATCA	-0.0706 ± 0.014
CCCGATAC	0.0106 ± 0.0078
GTGCCAAA	0.403 ± 0.0099
AAGTTACC	-0.142 ± 0.0075
CTACGAAC	0.0573 ± 0.075
CCGGCCCA	-0.147 ± 0.024
ATACAGAT	-0.177 ± 0.038
TCTGAACA	-0.119 ± 0.0055
ATGGTCTA	-0.0902 ± 0.063
CCAATAGG	-0.088 ± 0.028
CTATTAGA	-0.162 ± 0.058
GAAACGTC	-0.067 ± 0.017
AGAGTGAT	0.231 ± 0.039
CTTTAACA	0.204 ± 0.1
GTTAATTA	0.0378 ± 0.084
ATGTTCTC	0.0714 ± 0.043
CTACTTTC	-0.0311 ± 0.045

Sequence	PBM E-score of 8-mer
AGCCGGGA	-0.156 ± 0.0034
ATGTCAGC	0.023 ± 0.03
ACGGTTCT	0.08 ± 0.05
CGCGGCGA	0.204 ± 0.055
AACGGACG	-0.089 ± 0.047
CCGCATTA	-0.134 ± 0.023
ATACCCTC	-0.0914 ± 0.02
ATCGAGTA	-0.0793 ± 0.074
AGTTATGA	-0.0946 ± 0.04
CTTTGTGC	-0.0738 ± 0.051
TCCACTCA	-0.145 ± 0.028
GTGTGCGA	0.361 ± 0.0042
CGGTCGAC	0.0829 ± 0.043
GTTGAGGA	0.00811 ± 0.06
AAAATAAA	-0.257 ± 0.03
ATTCAAAA	-0.277 ± 0.063
TGATGCCA	0.12 ± 0.029
CGGTTGTA	-0.027 ± 0.0043
CGGCGAAC	0.0367 ± 0.014
ACGAACTA	-0.0707 ± 0.021
